Hit rate of the full screen: of about 75,000 compounds, about 15 (0.02%) were called active. The shares of active, inactive and inconclusive entries below differ from those in the screen. Calls come from the whole dose curve; as a rule, active = well fitted inhibition curve with a large enough effect in the main read-out, with a control signal flat (not every such curve was filed as active); inconclusive = small, poorly fitted or top-dose-only effect, or a change in a side signal; inactive = flat fitted curve, though single readings scatter. A potency beside an inconclusive call is a rough fit, not a confirmed value. “Side channel” marks fits to a control or component signal instead of the main read-out.
target: Caspase-7 (Homo sapiens) (UniProt P55210); test: qHTS Assay for Allosteric/Competitive Inhibitors of Caspase-7; details: recombinant caspase-7, Ac-DEVD-AFC fluorescence rate; activity change, negative = inhibition: at 57.5 µM (top of the series) unless noted; for activity change, negative = inhibition: % of control where 0% means no effect
UniProt P55210, sequence (P55210 whole entry, looked up): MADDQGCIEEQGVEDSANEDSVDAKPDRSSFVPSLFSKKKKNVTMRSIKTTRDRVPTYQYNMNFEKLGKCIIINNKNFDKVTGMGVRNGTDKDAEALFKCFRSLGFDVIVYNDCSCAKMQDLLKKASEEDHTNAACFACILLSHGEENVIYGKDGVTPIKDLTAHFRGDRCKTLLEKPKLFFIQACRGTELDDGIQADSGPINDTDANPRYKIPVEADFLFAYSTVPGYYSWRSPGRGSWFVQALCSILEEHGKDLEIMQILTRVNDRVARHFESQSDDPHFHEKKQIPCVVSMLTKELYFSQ
Potency is the fitted concentration of half-maximal effect; tags give direction and shape of the fitted curve or compound fluorescence and quenching.

Compound | Potency | activity change, negative = inhibition
Cc1c(C(=O)NC2=NCCS2)oc2ccccc12 | inconclusive: 7.94 µM [fluorescent, side channel, partial curve] | –
COc1ccc(-c2cc(C(F)(F)F)n3ncc(C(=O)NCC4CCCO4)c3n2)cc1 (stereo not drawn) | inconclusive: 3.98 µM [inhibitor, partial curve] | –
Cn1cc(-c2nc3cnc(Oc4ccccc4)nc3n(C)c2=O)c2ccccc21 | inconclusive: 2.51 µM [fluorescent, full curve] | –
COc1ccc(N2CSC3=C(C#N)C(c4cc(OC)c(OC)cc4OC)CC(=O)N3C2)c(OC)c1 (stereo not drawn) | inconclusive: 31.6 µM [fluorescent, side channel, single point] | –
COCCn1c(=O)c(-c2cc(F)cc(F)c2)nc2cnc(N3CCOCC3)nc21 | inconclusive: 3.16 µM [fluorescent, side channel, partial curve] | –
O=C(NCCO)c1cc2ccccc2cc1O | inconclusive: 15.8 µM [fluorescent, side channel, partial curve] | –
CC(=O)Nc1cc2ccc(OC(C)=O)cc2oc1=O | inconclusive: 12.6 µM [fluorescent, side channel, partial curve] | –
CCNc1ncc2nc(-c3cccs3)c(=O)n(CCc3ccccc3)c2n1 | inconclusive: 1.58 µM [fluorescent, side channel, full curve] | –
CC1=CC(=C2C(=O)c3ccccc3C2=O)C=C(C)N1C | – | inactive: 1.81%
CCCCC(=O)NCCc1c(Cc2ccccc2)[nH]c2ccccc12 | – | inactive: 0.226%
CC1CCCN(CCCNC(=O)c2coc3nc4ccccc4nc23)C1 (stereo not drawn) | inconclusive: 25.1 µM [fluorescent, partial curve] | –
CN1CCN(c2ncc3nc(-c4ccccc4)c(=O)n(-c4ccccc4)c3n2)CC1 | inconclusive: 10 µM [fluorescent, side channel, partial curve] | –
N=c1c(C(=O)NCc2ccc(F)cc2)cc2c(=O)n3ccccc3nc2n1CC1CCCO1 (stereo not drawn) | inconclusive: 2.51 µM [fluorescent, side channel, full curve] | –
COC(=O)c1ccccc1NS(=O)(=O)c1ccc2c3c(cccc13)C(=O)N2 | inconclusive: 31.6 µM [fluorescent, side channel, single point] | –
O=c1c(-c2cc(F)cc(F)c2)nc2cnc(N3CCOCC3)nc2n1C[C@H]1CCCO1 | inconclusive: 0.501 µM [inhibitor, full curve] | –
COc1ccc(-n2c(=O)c(-c3cn(C)c4ccccc34)nc3cnc(N4CCNCC4)nc32)cc1 | inconclusive: 15.8 µM [inhibitor, partial curve] | –
CN(CCc1ccccn1)S(=O)(=O)c1ccc2c3c(cccc13)C(=O)N2 | inconclusive: 15.8 µM [fluorescent, partial curve] | –
C=C(CC(=O)OC)C[C@]1(CC(=O)OC)CC2(CC=C(C)C)C(=O)C(C(=O)c3ccccc3)=C(OC(=O)c3ccc(Br)cc3)C(CC=C(C)C)(C1)C2=O (stereo partly drawn) | – | inactive: 4.73% [at 11.5 µM]
COc1ccc(-n2c(O)c(/C=N/n3cnnc3)c3ccccc3c2=O)cc1 | inconclusive: 31.6 µM [fluorescent, single point] | –

Compound | Potency | activity change, negative = inhibition
O=c1c(-c2cc(F)cc(F)c2)nc2cnc(N3CCOCC3)nc2n1Cc1ccc(F)cc1 | inconclusive: 2 µM [inhibitor, partial curve] | –
COC(=O)c1c(NC(=O)Cc2cccs2)sc(C(=O)N2CCCCC2)c1C | – | inactive: -1.11%
Cc1ccsc1C1C=C(c2cccc(Br)c2)Nc2ncnn21 (stereo not drawn) | inconclusive: 20 µM [fluorescent, side channel, partial curve] | –
COc1ccc(C2C=C(c3ccccc3)Nc3ncnn32)cc1 (stereo not drawn) | inconclusive: 25.1 µM [fluorescent, side channel, partial curve] | –
CO[C@@H]1COC(=O)[C@H](COCc2ccccc2)NC(=O)C/C=C\[C@@H](C)[C@H](OC)COC(=O)[C@H](COCc2ccccc2)NC(=O)C/C=C\[C@H]1C | – | inactive: -0.465% [at 11.5 µM]
Cc1noc(C)c1-c1ccc2ncnc(Nc3ccc(F)cc3)c2c1 | – | inactive: -5.63%
Cn1c(=O)c(-c2ccc(Cl)cc2)nc2cnc(N3CCOCC3)nc21 | inconclusive: 2.51 µM [fluorescent, full curve] | –
O=c1oc2ccc3ccccc3c2cc1-c1nnc(-c2ccccc2)o1 | inconclusive: 1 µM [fluorescent, side channel, full curve] | –
O=C1NC(c2ccco2)Nc2sc3c(c21)CCN(Cc1ccccc1)C3 (stereo not drawn) | inconclusive: 10 µM [fluorescent, partial curve] | –
COc1ccc(OC)c(C2C3CN(C(C)C)CC=C3C(C#N)=C(N)C2(C#N)C#N)c1 (stereo not drawn) | inconclusive: 25.1 µM [fluorescent, partial curve] | –
O=C(c1cc2c(=O)n3ccccc3nc2s1)N1CCOCC1 | inconclusive: 3.16 µM [inhibitor, full curve] | –
C1=C(N2CCOCC2)/C(=C/c2nc3ccccc3[nH]2)CC1 | inconclusive: 20 µM [inhibitor, partial curve] | –
CC1CCN(C(=O)CCc2nc3cc(S(=O)(=O)N(C)C)ccc3n2C)CC1 | – | inconclusive: -53.5% [inhibitor] [at 0.00368 µM]
COCCn1c(=O)c(-c2ccc(F)cc2)nc2cnc(N3CCOCC3)nc21 | inconclusive: 5.01 µM [fluorescent, full curve] | –
COc1ccccc1-c1nnc2sc(-c3ccc(N(C)C)cc3)nn12 | – | inactive: -20.3%
O=C(O)COc1ccc2nsnc2c1Cl | inconclusive: 25.1 µM [fluorescent, partial curve] | –
O=c1c(-c2ccc(Cl)cc2)nc2cnc(N3CCOCC3)nc2n1C[C@H]1CCCO1 | inconclusive: 1.58 µM [fluorescent, side channel, partial curve] | –
O=C(NCc1cccnc1)c1ccc(COc2ccccc2Br)o1 | – | inactive: -2.23%
CCc1cc(=O)oc2cc(OC(C)=O)cc(OC(C)=O)c12 | inconclusive: 15.8 µM [fluorescent, partial curve] | –
